Over roughly 110,000 compounds, “z-score” has its median near -0.1; the highest 2% begin near 2. The list shows a part of the results. Active and inactive are the calls of the source.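 How the source made its calls: active means z-score in the third read window above 3 or below -3; inactive means the rest.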

The assay concerns the target Metabotropic glutamate receptor 8 (Rattus norvegicus) (UniProt P70579). Briefly: rat mGluR8 modulators via GIRK flux, primary screen, cell-based, thallium flux, HTS (AID 488969). The conditions noted are these: HEK293 rat mGluR8, GIRK (G protein-gated inwardly rectifying potassium channel) thallium flux, FluoZin2; at 10 µM; stronger effect = higher value; submaximal glutamate (EC20) added with thallium.
Chain of UniProt P70579 (P70579 whole entry, looked up): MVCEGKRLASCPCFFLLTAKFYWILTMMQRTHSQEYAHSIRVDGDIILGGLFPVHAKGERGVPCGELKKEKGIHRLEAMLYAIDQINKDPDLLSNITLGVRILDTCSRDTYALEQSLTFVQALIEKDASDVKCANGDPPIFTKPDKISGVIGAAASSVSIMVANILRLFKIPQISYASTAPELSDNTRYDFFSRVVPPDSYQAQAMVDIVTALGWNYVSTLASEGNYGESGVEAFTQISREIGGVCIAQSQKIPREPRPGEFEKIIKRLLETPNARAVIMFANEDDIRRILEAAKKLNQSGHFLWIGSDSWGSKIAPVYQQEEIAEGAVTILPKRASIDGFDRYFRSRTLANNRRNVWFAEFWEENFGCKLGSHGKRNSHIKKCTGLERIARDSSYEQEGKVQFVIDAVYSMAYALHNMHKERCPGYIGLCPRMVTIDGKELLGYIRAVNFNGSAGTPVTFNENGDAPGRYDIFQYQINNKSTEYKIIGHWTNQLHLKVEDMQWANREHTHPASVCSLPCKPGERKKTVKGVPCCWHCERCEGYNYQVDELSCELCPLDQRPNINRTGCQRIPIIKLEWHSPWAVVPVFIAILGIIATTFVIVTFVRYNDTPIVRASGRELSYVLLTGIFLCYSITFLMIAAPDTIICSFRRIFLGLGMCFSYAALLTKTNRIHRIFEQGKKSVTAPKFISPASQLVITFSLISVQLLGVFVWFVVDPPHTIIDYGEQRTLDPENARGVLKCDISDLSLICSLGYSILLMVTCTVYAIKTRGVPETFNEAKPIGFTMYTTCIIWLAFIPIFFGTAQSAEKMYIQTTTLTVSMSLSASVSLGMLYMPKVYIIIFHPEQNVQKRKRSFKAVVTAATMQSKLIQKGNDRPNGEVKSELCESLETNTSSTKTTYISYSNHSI
In turn, `Cc1csc2nc(CCNS(=O)(=O)c3ccc4c(c3)OCCO4)cn12` returned a z-score of -0.12. As for `COC(=O)c1ccccc1OCCCN(C)C`, the figure is 0.536; as for `CCC(=O)N1CCc2cc(S(=O)(=O)NCCC(=O)N3CCN(Cc4ccccc4)CC3)ccc21`, -0.948.

Compound `COc1ccc(NC(=O)C2C3C=CC4(CN(Cc5cccnc5)C(=O)C24)O3)c(OC)c1` (configuration not stated) came in with a z-score of -0.433. `BrC(=C\c1ccccc1)/C=N/N1CCN(Cc2ccccc2)CC1` returned a z-score of -0.136. Next, `Cc1c(Cl)c(-c2n[nH]c(=S)n2-c2ccccc2)nn1C`: -0.29. As for `CC(C)CCN1CC(C(=O)N2CCN(c3ccc(F)cc3)CC2)CC1=O` (configuration not stated), the figure is -0.0242; as for `O=c1[nH][nH]c(C(F)(F)F)c1C=NCc1ccccc1Cl`, -0.188. Compound `Cc1cc(C)cc(C(=O)NCC(=O)OCC(=O)N2CCN(S(=O)(=O)c3ccc4ccccc4c3)CC2)c1` displayed a z-score of -0.368. Next, `CCOc1ccccc1-c1nc(-c2cc3ccc(C)cc3[nH]c2=O)no1`: -0.256. For `CCN(CC)c1ccc(/C=C2/C(=O)N(c3ccc([N+](=O)[O-])cc3)N=C2N2CCOCC2)cc1`, the z-score turned out to be 0.0375. Compound `CN(C)Cc1ccccc1Sc1cccc2ccccc12` returned a z-score of 0.194. Next, `CC(=O)c1c(C)[nH]c(C(=O)Nc2ccc(Cl)c(S(=O)(=O)N3CCOCC3)c2)c1C`: 1.6; `CCCCNc1c(N)n(CCCC)c(=O)[nH]c1=O`: -0.141; `CC(C)Oc1ccc(C(=O)Nc2ccc(N3CCCCC3)cc2)cc1`: -0.31.

In turn, `COc1cccc(/C(O)=C2/C(=O)C(=O)N(CCN(C)C)C2c2ccc(Br)cc2)c1` (configuration not stated) registered a z-score of 0.33. As for `N#Cc1c2ncn(CC(=O)c3ccc(Br)cc3)c(=O)c2c2n1CCC2`, the figure is -0.192; as for `CCCCCCCCCCn1c2c(c(=N)c3c1CCC3)CCC2`, 0.554.

In turn, `COc1ccc(C(C)C)cc1S(=O)(=O)NCc1ccccn1` had a z-score of 0.105. The compound `CC1=CC(=O)C=C(C)C1=NOS(=O)(=O)c1ccccc1` gave a z-score of 0.257. As for `CC(C(=O)O)N1C(=O)c2cccc3cccc1c23` (configuration not stated), the figure is 0.0263; as for `COC(=O)c1ccc2nc(NC(=O)CN3C(=O)CCC3=O)sc2c1`, -0.249. As for `CC1(C(=O)CSc2nc3ccccc3s2)CCC(=O)O1` (configuration not stated), the figure is -0.314; as for `CCc1nnc(NC(=O)CSc2nnc(COc3ccc(C#N)cc3)n2-c2ccccc2)s1`, -0.997; as for `O=C(NCCc1ccccn1)c1cc(-c2ccccc2Cl)nc2ccccc12`, -0.288.

`Cc1ccc2nc(SC(C)C(=O)N3CCCC3)[nH]c2c1` (configuration not stated) came in with a z-score of -0.517.

As to `CC(NC(=O)OCc1ccccc1)C(=O)Oc1cc2oc(=O)cc(-c3ccccc3)c2cc1Cl` (configuration not stated), the z-score is -0.331. Next, `CCOC(=O)Cc1csc(NC(=S)NC(=O)c2ccc(C)cc2)n1`: active: 8.13. In the case of `O=C(CCN1CCc2ccccc2C1)Nc1cccc(F)c1`, the z-score amounted to 0.845. As for `COc1cc(NC(=O)c2ccccc2[N+](=O)[O-])ccc1NC(=O)C(C)C`, the figure is -0.178; as for `COC(=O)CN1C(=O)Nc2ccc(Br)cc2C1c1ccccc1` (configuration not stated), -0.45. As for `O=C(Nc1ccccn1)c1cc2ccccc2o1`, the figure is -0.086; as for `CCOc1ccccc1NC(=O)CN(c1ccc(OC)cc1)S(=O)(=O)c1c(C)noc1C`, -0.596; as for `O=C(C1CCN(S(=O)(=O)c2ccccc2)CC1)N1CCOCC1`, -0.101. Compound `NC(=O)Cn1c2[n+](c3ccccc31)CC(O)CS2` (configuration not stated) registered a z-score of -0.0729. `C=CCNC(=O)c1c2c(nc3ccccc13)-c1ccccc1CC2`: the z-score is -0.247. Next, `COc1cc(-c2cc(C(=O)Nc3c(Cl)cc(Cl)cc3Cl)c3ccccc3n2)cc(OC)c1OC`: -0.278; `O=C(O)C1CCN1C1CCCCC1` (configuration not stated): 0.243. As for `COc1ccc(C2SCC(=O)N2CCCN(C)C)cc1` (configuration not stated), the figure is 0.107; as for `CCOC(=O)c1cc(-c2ccccc2)sc1NC(=O)C(C)OC(=O)c1ccncc1` (configuration not stated), -0.164; as for `O=c1cc(Nc2ccc3c(c2)OCCO3)[nH]c(=O)n1C1CCCCC1`, 0.565.

`O=C1CCCCC(=O)N(c2ccccc2)c2ccccc21` displayed a z-score of -0.0015. Next, `COc1ccc(N/C=C\C(=O)c2ccc3c(c2)OCO3)cc1`: -0.453.

The compound `O=C(CCCNS(=O)(=O)c1cccc2nsnc12)N1CCCCC1` registered a z-score of 0.989. Compound `O=C(NCCCN1CCC(Cc2ccccc2)CC1)C1CCC(=O)N1C1CCCC1` (configuration not stated) displayed a z-score of -0.556. Next, `Cc1ccccc1-c1nc(CN2CCC(C(=O)NCCCN3CCOCC3)CC2)c(C)o1`: -0.636.

The compound `CC1=CC(C)C2C(=O)N(CCC[N+](C)(C)C)C(=O)C2C1` (configuration not stated) had a z-score of -0.291. Next, `CC(C)NC(=O)c1c2c(nc3ccccc13)CCCC2`: -0.133; `CCC(Nc1nc(-c2ccccc2)nc2ccccc12)C(=O)O` (configuration not stated): -1.78; `COc1cc2c(cc1NC(=O)C(C)NCc1ccccc1)oc1ccccc12` (configuration not stated): 0.0909.

`Cc1[nH]c2ccc(F)cc2c(=O)c1SC(F)(F)C(F)F` displayed a z-score of -1.3. As for `CN(C)c1ccc(/C=C/C(=O)c2cccc(Br)c2)cc1`, the figure is -0.756; as for `COc1ccc(C(=O)Nc2ccc(Cl)cc2C(=O)NCc2ccco2)cc1OC`, -0.347. As for `Cc1ccccc1N(CC(=O)O)S(C)(=O)=O`, the figure is -0.0172. Next, `O=C(O)CSCC(=O)Nc1ccc(C(=O)O)cc1`: 0.337.

Turning to `CC1CCCN(C(C(=O)Nc2ccc3c(c2)OCO3)c2ccccc2)C1` (configuration not stated), the z-score was -0.134. In turn, `CC(C)C(=O)N1CCN(c2ccc([N+](=O)[O-])cc2Cl)CC1` displayed a z-score of -0.961. As for `CCNC(=O)CCC(=O)Nc1cc(Cl)ccc1C`, the figure is -0.403. As for `CCCCn1c(-c2ccncc2)nc2c1c(=O)[nH]c(=O)n2CC(C)C`, the figure is 0.124; as for `CC(C)NC(=O)NC(=O)CSc1nnc(COc2ccccc2Cl)o1`, -0.0638. Next, `CCOC(=O)CC(=O)Nc1ccc(C)cc1`: -0.33; `O=C1N=c2ccccc2=C1c1c(O)n(-c2cccc(F)c2)[nH]c1=O`: -0.202.

As to `CC(C)C(=O)c1cn(CC(=O)NCc2ccco2)c2ccccc12`, the z-score was -0.253. Next, `COC(=O)c1ccccc1NC(=S)NC(=O)c1cccc2ccccc12`: 0.972; `COC(=O)Cc1[nH]nc2c1C1(CCSCC1)C(C#N)=C(N)O2`: -0.244. As for `Cc1cc(NC(=O)COC(=O)C2CCN(S(=O)(=O)c3cccc(Cl)c3Cl)CC2)no1`, the figure is 0.313; as for `O=C(CC(Nc1cccc(Cl)c1Cl)C(=O)OCC(=O)c1cccs1)c1ccccc1` (configuration not stated), -0.0748; as for `CCN(CC)C(=O)c1sc2nc(N3CCOCC3)c3c(c2c1N)CCCC3`, -0.134.

Take `CCn1ncc(C(=O)Nc2cc(C)on2)c1C`: the z-score was -0.0482.

In turn, `O=C(COc1ccc2ccccc2c1)NN1C(=O)c2ccccc2C1=O` returned a z-score of 0.492. Next, `Cc1ccc(S(=O)(=O)N2CCC(C(=O)N(C)C3CCS(=O)(=O)C3)CC2)cc1` (configuration not stated): -1.02; `CCOC(=O)c1ccc(NC(=O)CN2C(=O)CCC2=O)cc1`: -0.113; `CCCC(=O)NC(=S)Nc1ccc(Cl)cn1`: 0.131.

For `COc1ccc(C(=O)Nc2ccc(N3CCN(C(=O)C(C)C)CC3)cc2)cc1[N+](=O)[O-]`, the z-score was determined as 0.462. Next, `Cc1ccc(C)c(S(=O)(=O)NC(CCC(N)=O)C(=O)O)c1` (configuration not stated): 0.144; `O=C(c1ccccc1)c1ccc2ccccc2n1`: -0.0792; `O=C(c1ccccc1)N1CCN(c2ncnc3sc4c(c23)CCC4)CC1`: -0.295.

`CCc1ccccc1NC(=O)CSC1=C(C#N)C(c2ccc3c(c2)OCO3)C2=C(CCCC2=O)N1` (configuration not stated) came in with a z-score of -0.583. As for `C=CCn1c(SCC(=O)N2CCc3ccccc3C2)nc2ccccc2c1=O`, the figure is -2.34; as for `c1ccc(Cn2nc(-c3ccccc3)nc2-c2ccccc2)cc1`, -0.141; as for `Cc1cccc(NC(=O)c2sc(C)nc2C)c1`, -0.151. Compound `Cc1ccc(N(CC(=O)N/N=C/c2ccc(OC3CSC3)cc2)S(=O)(=O)c2ccccc2)c(C)c1` returned a z-score of -0.326. As for `COc1ccc(S(=O)(=O)N2CCOCC2)c(C)c1C`, the figure is -0.156. As for `CSc1nc(C)c(CCOC(=O)c2ccccc2)c(=O)[nH]1`, the figure is 0.0706; as for `COc1cccc(C(=O)Nc2cc(C)ccc2NC(=O)COc2ccccc2)c1`, -0.188. As for `COc1cccc(/C(C)=N/NC(=O)c2ccc(N(C)C)cc2)c1`, the figure is -0.258; as for `OCCN1CCN(c2nc(-c3ccccc3)nc3c2oc2ccccc23)CC1`, 0.252; as for `CC(C)OC(=O)c1ccc(Cn2nnc3ccccc3c2=O)cc1`, -0.565. In turn, `CCOc1ccc2nc(-c3ccccc3)[nH]c2c1` displayed a z-score of 1.25. As for `O=C(COC(=O)[C@H](Cc1ccccc1)NC(=O)c1ccco1)NCc1ccccc1`, the figure is -0.495. Take `COc1ccc(-n2c(C)cc(/C=N/Nc3nnc(C)n3N)c2C)cc1`: the z-score came out at 0.00233. Next, `COC(=O)c1ccc(COc2ccccc2/C=N/NS(=O)(=O)c2ccccc2)cc1`: -0.0877; `COCCn1nnnc1C(c1cc2cc(C)ccc2[nH]c1=O)N1CCc2ccccc21` (configuration not stated): 0.00622. `Cc1cccc(C(=O)Nc2oc(-c3ccccc3)cc2C#N)c1` gave a z-score of 0.355. As for `C=CCc1cccc2cc(C(=O)N(C)C)c(=O)oc12`, the figure is 0.176; as for `O=C(COC(=O)c1ccc(S(=O)(=O)NCc2ccco2)cc1)NCCC1=CCCCC1`, -0.143; as for `Cc1nnc(SCC(=O)NC(C)(C)C)n1CCc1ccccc1`, 0.587. Turning to `O=C(NNC(=O)c1ccccc1Cl)c1ccncc1`, the z-score was -0.0706. As for `Fc1ccc(-c2csc3[n+]2CCS3)cc1`, the figure is -0.0214. With `Cc1cc(C)nc(-n2nc(C)cc2Nc2ccccc2)n1`, the z-score is -0.115.

The compound `CCCc1cc(=O)n2[nH]c(C)cc2n1` yielded a z-score of -0.851. Next, `COc1ccc(-c2nnc3n2N=C(C)CS3)cc1`: -0.114.

Consider `NS(=O)(=O)c1ccc(NC(=O)COC(=O)C2(c3ccc(F)cc3)CCCC2)cc1`, for which the z-score was -0.116. `Cc1cccc2sc(NC(=O)CSCc3ccccc3)nc12` came in with a z-score of 0.801.

`CCOc1ccc(C(=O)Nc2ccc(N3CCCC3)cc2)cc1` yielded a z-score of -0.201.

`CCS(=O)(=O)N1CCC(C(=O)NCCCN2CCC(Cc3ccccc3)CC2)CC1` came in with a z-score of -0.302. In the case of `CCC(C)N1C(=O)CCC1C(=O)N1CCN(c2ccc(F)cc2)CC1` (configuration not stated), the z-score was -0.174.

As to `CC(C)CNC(=O)COc1cccc(C(=O)NCc2ccccc2)c1`, the z-score was -0.218. As for `Cc1ccc(-c2cnc(NC(=O)CCC(=O)N3CCCCC3)n2C)cc1`, the figure is active: 4.3; as for `CC(C)c1ccccc1NC(=O)COC(=O)Cc1cccc(C(F)(F)F)c1`, -0.0324; as for `COc1ccc(-c2onc3ccc(Cl)cc23)cc1`, -0.408. As for `O=C1CN(C(=O)c2ccc(Br)o2)C(c2ccc(F)cc2)c2cc(F)ccc2N1` (configuration not stated), the figure is -0.22.
